Data reported in PubChem BioAssay AID1362 (SRMLSC, 2008).
Some of the results follow. Shown are side measurements of this screen, not its main read-out; they come without a call. Most of these compounds were active or inconclusive in the main read-out, so they are no random draw.

Assay: growth inhibition of WT strain, primary screen, mitochondrial fusion inhibitor project, WT and mutant strains, chemical genetic (AID 1362); note: tested in S. cerevisiae
Conditions: mitochondrial fusion phenotypic screen, at 10 µM
For `S=C1NCCc2ccc(Cl)cc2C1c1ccccc1Cl` (stereo unspecified), the inhibition was 54.8%.
With `CC1CC(C)CN(C2CCN(Cc3cccnc3)CC2)C1` (stereo unspecified) the inhibition was -5.1%.
With `Nc1ccc2nc(CN3CCOCC3)[nH]c2c1` the inhibition was -3.53%.
With `c1ccc(-c2ccc(-c3nc(-c4ccccn4)no3)cc2)cc1` the inhibition was 75.2%.
Molecule `CC1CCCN(Cc2nc3c(c(=O)n(C)c(=O)n3C)n2CC(N)=O)C1` (stereo unspecified) has an inhibition of 97.5%.
Work on `CCCCCCCCNC(C)C(O)c1ccc(SC(C)C)cc1` (stereo unspecified) yielded an inhibition of 97.8%.
`O=c1[nH][nH]c(-c2ccccc2)c1C=Nc1ccccc1` showed an inhibition of 14.5%.
With `CN(C(=O)c1cccc(COc2ccc(Cl)cc2Cl)c1)c1ccccc1` the inhibition was 45.6%.
`CCN(CCNCC(O)COCc1ccc(Cl)cc1)c1cccc(C)c1` (stereo unspecified) gave an inhibition of 32.9%.
With `CC(c1cccs1)N(Cc1ccco1)C(=S)Nc1ccccc1Cl` (stereo unspecified) the inhibition was 23.5%.
`COc1cc(OC)nc(Oc2ccccc2C(=O)Oc2ccccc2Cl)n1` gave an inhibition of 61.4%.
With `CC1CCCC(NC(=S)NC(=O)c2ccccc2Br)C1C` (stereo unspecified) the inhibition was 48.8%.
Work on `CCOc1ccccc1NC(=S)NCCc1ccccc1` yielded an inhibition of 71.1%.
With `CCCCOc1ccc(C2C3CN(C(=O)OCC)CC=C3C(C#N)=C(N)C2(C#N)C#N)cc1OC` (stereo unspecified) the inhibition was 20.2%.
In the case of `O=C(c1ccc(C(=O)N2CCCc3ccccc32)s1)N1CCCc2ccccc21`, the inhibition is reported as 90.8%.
Work on `CCC(C)n1c(=O)c(C(=O)Nc2ccccc2S(N)(=O)=O)c(O)c2ccccc21` (stereo unspecified) yielded an inhibition of 21%.
Molecule `O=C(c1csc(Nc2ccccc2Cl)n1)N1CCCC1` has an inhibition of -7.59%.
In the case of `COc1ccccc1N1CCN(C(=O)c2ccc(CSc3ccccc3)cc2)CC1`, the inhibition is reported as -4.44%.
`COc1cc(Cl)c(C)cc1NC(C)C(=O)Nc1cc(C(F)(F)F)ccc1N1CCOCC1` (stereo unspecified) gave an inhibition of 32.2%.
Work on `CCC(=O)N1CCN(c2ccccc2NC(=O)COc2cc(C)ccc2C(C)C)CC1` yielded an inhibition of 14.2%.
With `O=C(CN1/C(=C(/O)c2ccccc2)C(=O)c2ccccc2S1(=O)=O)c1ccccc1` the inhibition was 47.7%.
For `CCOC(=O)c1cnc2ccc(OCC)cc2c1N1CCN(c2ccccc2)CC1`, the inhibition was 39%.
Molecule `Cc1cc(/C=N/n2cnnc2)c(C)n1-c1ccc(OCc2ccc(F)cc2)cc1` has an inhibition of 36.8%.
`CCC(C)c1ccc(NC(=S)NC2CCN(Cc3ccccc3)CC2)cc1` (stereo unspecified) gave an inhibition of 58.7%.
`O=C(c1cccc(Cl)c1)N1CCCC(c2ccc(Cl)cc2)=N1` gave an inhibition of 59.1%.
For `Cc1ccc(NC(=S)N/N=C/c2c(C)[nH]c3ccccc23)cc1`, the inhibition was 92.6%.
With `COc1ccc(NC(=S)N2CCN(C(c3ccccc3)c3ccccc3)CC2)c(OC)c1` the inhibition was 27.5%.
With `COc1ccc(NC(=S)NC2CCCCCC2)c(OC)c1` the inhibition was 36%.
Molecule `N=C(N)SCc1cn(-c2ccccc2)nc1-c1ccc(Br)cc1` has an inhibition of 76.5%.
Molecule `Cc1ccc(-n2cc(CNCCc3cscn3)c(-c3ccc(F)cc3)n2)cc1` has an inhibition of 15.9%.
`COc1cc2c(cc1NC(=O)Nc1ccccc1)oc1ccccc12` showed an inhibition of 61.6%.
